Lines with a small IC50 respond at low doses; a limit (>, <) means that the fit lies beyond the doses tested. For AUC the same curve is integrated over the 256-fold range of doses and scaled to a fraction: 1 means no effect, lower means more sensitive. Any top dose called inferred was derived from the fitted curves, not read from the paper.
What was measured:
Assay in all cases: Viability of human cancer cell lines after 72 h of drug (GDSC screen)
NG-25 = compound: CCN1CCN(Cc2ccc(NC(=O)c3ccc(C)c(Oc4ccnc5[nH]ccc45)c3)cc2C(F)(F)F)CC1 [NG-25]; conditions: top dose 10.24 µM; top dose inferred
Experimental: (§1)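 Human cancer cell lines in 384-well plates, medium with 10% serum, drug for 72 h over a 256-fold dose range (nine 2-fold or five 4-fold steps up to the top dose). Adherent lines were fixed and stained with the nucleic acid dye Syto60, suspension lines read with resazurin; signal relative to control wells, capped at 0 and 100%. One two-parameter sigmoid per drug and line, fitted in a mixed model over all curves with the slope shared within a line.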

GSK-1904529A = compound: CCc1cc(Nc2nccc(-c3c(-c4ccc(OC)c(C(=O)Nc5c(F)cccc5F)c4)nc4ccccn34)n2)c(OC)cc1N1CCC(N2CCN(S(C)(=O)=O)CC2)CC1 [GSK-1904529A]; conditions: top dose 1.024 µM; top dose inferred
Experimental: as §1

PFI-1 = compound: COc1ccccc1S(=O)(=O)Nc1ccc2c(c1)CN(C)C(=O)N2 [PFI-1]; conditions: top dose 10 µM; top dose inferred
Experimental: as §1

Tipifarnib = compound: Cn1cncc1[C@@](N)(c1ccc(Cl)cc1)c1ccc2c(c1)c(-c1cccc(Cl)c1)cc(=O)n2C [Tipifarnib]; conditions: top dose 16 µM; top dose inferred
Experimental: as §1

NCI-H1915 (large cell lung carcinoma, adherent)
AUC (NG-25): 0.905
IC50 (NG-25): > 10.2 µM
AUC (GSK-1904529A): 0.988
IC50 (GSK-1904529A): > 1.02 µM
AUC (PFI-1): 0.95
IC50 (PFI-1): > 10 µM
AUC (Tipifarnib): 0.574
IC50 (Tipifarnib): 1.6 µM

CHSA8926 (chondrosarcoma, adherent)
AUC (NG-25): 0.948
IC50 (NG-25): > 10.2 µM
AUC (GSK-1904529A): 0.98
IC50 (GSK-1904529A): > 1.02 µM
AUC (PFI-1): 0.907
IC50 (PFI-1): > 10 µM
AUC (Tipifarnib): 0.899
IC50 (Tipifarnib): > 16 µM

HT-115 (large intestine, adherent)
AUC (NG-25): 0.987
IC50 (NG-25): > 10.2 µM
AUC (GSK-1904529A): 0.991
IC50 (GSK-1904529A): > 1.02 µM
AUC (PFI-1): 0.944
IC50 (PFI-1): > 10 µM
AUC (Tipifarnib): 0.983
IC50 (Tipifarnib): > 16 µM

SW1417 (large intestine, adherent)
AUC (NG-25): 0.944
IC50 (NG-25): > 10.2 µM
AUC (GSK-1904529A): 0.986
IC50 (GSK-1904529A): > 1.02 µM
AUC (PFI-1): 0.956
IC50 (PFI-1): > 10 µM
AUC (Tipifarnib): 0.918
IC50 (Tipifarnib): > 16 µM

J82 (bladder, adherent)
AUC (NG-25): 0.976
IC50 (NG-25): > 10.2 µM
AUC (GSK-1904529A): 0.98
IC50 (GSK-1904529A): > 1.02 µM
AUC (PFI-1): 0.881
IC50 (PFI-1): > 10 µM
AUC (Tipifarnib): 0.682
IC50 (Tipifarnib): 3.23 µM

HDQ-P1 (breast, adherent)
AUC (NG-25): 0.982
IC50 (NG-25): > 10.2 µM
AUC (GSK-1904529A): 0.983
IC50 (GSK-1904529A): > 1.02 µM
AUC (PFI-1): 0.959
IC50 (PFI-1): > 10 µM
AUC (Tipifarnib): 0.77
IC50 (Tipifarnib): 7.29 µM

C-33-A (cervix, adherent)
AUC (NG-25): 0.695
IC50 (NG-25): 2.25 µM
AUC (GSK-1904529A): 0.918
IC50 (GSK-1904529A): > 1.02 µM
AUC (PFI-1): 0.862
IC50 (PFI-1): 8.6 µM
AUC (Tipifarnib): 0.649
IC50 (Tipifarnib): 2.6 µM

LU-99A (large cell lung carcinoma, adherent)
AUC (NG-25): 0.875
IC50 (NG-25): 9.89 µM
AUC (GSK-1904529A): 0.984
IC50 (GSK-1904529A): > 1.02 µM
AUC (PFI-1): 0.919
IC50 (PFI-1): > 10 µM
AUC (Tipifarnib): 0.674
IC50 (Tipifarnib): 3.04 µM

SW13 (adrenal gland, adherent)
AUC (NG-25): 0.988
IC50 (NG-25): > 10.2 µM
AUC (GSK-1904529A): 0.985
IC50 (GSK-1904529A): > 1.02 µM
AUC (PFI-1): 0.862
IC50 (PFI-1): 8.75 µM
AUC (Tipifarnib): 0.699
IC50 (Tipifarnib): 3.66 µM

SKN (uterus, adherent)
AUC (NG-25): 0.982
IC50 (NG-25): > 10.2 µM
AUC (GSK-1904529A): 0.982
IC50 (GSK-1904529A): > 1.02 µM
AUC (PFI-1): 0.829
IC50 (PFI-1): 8.1 µM
AUC (Tipifarnib): 0.818
IC50 (Tipifarnib): 11.5 µM

ASH-3 (thyroid, adherent)
AUC (NG-25): 0.988
IC50 (NG-25): > 10.2 µM
AUC (GSK-1904529A): 0.986
IC50 (GSK-1904529A): > 1.02 µM
AUC (PFI-1): 0.891
IC50 (PFI-1): > 10 µM
AUC (Tipifarnib): 0.597
IC50 (Tipifarnib): 1.85 µM

HeLa (cervix, adherent)
AUC (NG-25): 0.98
IC50 (NG-25): > 10.2 µM
AUC (GSK-1904529A): 0.989
IC50 (GSK-1904529A): > 1.02 µM
AUC (PFI-1): 0.92
IC50 (PFI-1): > 10 µM
AUC (Tipifarnib): 0.719
IC50 (Tipifarnib): 4.04 µM

H2591 (mesothelioma, adherent)
AUC (NG-25): 0.851
IC50 (NG-25): > 10.2 µM
AUC (GSK-1904529A): 0.974
IC50 (GSK-1904529A): > 1.02 µM
AUC (PFI-1): 0.907
IC50 (PFI-1): > 10 µM
AUC (Tipifarnib): 0.741
IC50 (Tipifarnib): 6.15 µM

H513 (mesothelioma, semi-adherent)
AUC (NG-25): 0.984
IC50 (NG-25): > 10.2 µM
AUC (GSK-1904529A): 0.91
IC50 (GSK-1904529A): > 1.02 µM
AUC (PFI-1): 0.938
IC50 (PFI-1): > 10 µM
AUC (Tipifarnib): 0.947
IC50 (Tipifarnib): > 16 µM

PCI-30 (head and neck, adherent)
AUC (NG-25): 0.984
IC50 (NG-25): > 10.2 µM
AUC (GSK-1904529A): 0.984
IC50 (GSK-1904529A): > 1.02 µM
AUC (PFI-1): 0.853
IC50 (PFI-1): > 10 µM
AUC (Tipifarnib): 0.949
IC50 (Tipifarnib): > 16 µM

BT-20 (breast, adherent)
AUC (NG-25): 0.891
IC50 (NG-25): > 10.2 µM
AUC (GSK-1904529A): 0.962
IC50 (GSK-1904529A): > 1.02 µM
AUC (PFI-1): 0.942
IC50 (PFI-1): > 10 µM
AUC (Tipifarnib): 0.763
IC50 (Tipifarnib): 7.09 µM

MOG-G-CCM (glioma, adherent)
AUC (NG-25): 0.768
IC50 (NG-25): 4.48 µM
AUC (GSK-1904529A): 0.945
IC50 (GSK-1904529A): > 1.02 µM
AUC (PFI-1): 0.909
IC50 (PFI-1): > 10 µM
AUC (Tipifarnib): 0.633
IC50 (Tipifarnib): 2.48 µM

CAL-120 (breast, adherent)
AUC (NG-25): 0.83
IC50 (NG-25): 9.16 µM
AUC (GSK-1904529A): 0.967
IC50 (GSK-1904529A): > 1.02 µM
AUC (PFI-1): 0.798
IC50 (PFI-1): 6.4 µM
AUC (Tipifarnib): 0.758
IC50 (Tipifarnib): 7.1 µM

GCT (soft tissue, adherent)
AUC (NG-25): 0.989
IC50 (NG-25): > 10.2 µM
AUC (GSK-1904529A): 0.964
IC50 (GSK-1904529A): > 1.02 µM
AUC (PFI-1): 0.859
IC50 (PFI-1): 7.38 µM
AUC (Tipifarnib): 0.83
IC50 (Tipifarnib): 9.1 µM

H2804 (mesothelioma, adherent)
AUC (NG-25): 0.965
IC50 (NG-25): > 10.2 µM
AUC (GSK-1904529A): 0.983
IC50 (GSK-1904529A): > 1.02 µM
AUC (PFI-1): 0.808
IC50 (PFI-1): 5.79 µM
AUC (Tipifarnib): 0.841
IC50 (Tipifarnib): 12.8 µM

22RV1 (prostate, adherent)
AUC (NG-25): 0.885
IC50 (NG-25): > 10.2 µM
AUC (GSK-1904529A): 0.98
IC50 (GSK-1904529A): > 1.02 µM
AUC (PFI-1): 0.842
IC50 (PFI-1): 9.72 µM
AUC (Tipifarnib): 0.656
IC50 (Tipifarnib): 3.01 µM

MKN45 (stomach, adherent)
AUC (NG-25): 0.922
IC50 (NG-25): > 10.2 µM
AUC (GSK-1904529A): 0.974
IC50 (GSK-1904529A): > 1.02 µM
AUC (PFI-1): 0.916
IC50 (PFI-1): > 10 µM
AUC (Tipifarnib): 0.648
IC50 (Tipifarnib): 2.87 µM

NCI-H1793 (lung adenocarcinoma, adherent)
AUC (NG-25): 0.967
IC50 (NG-25): > 10.2 µM
AUC (GSK-1904529A): 0.977
IC50 (GSK-1904529A): > 1.02 µM
AUC (PFI-1): 0.961
IC50 (PFI-1): > 10 µM
AUC (Tipifarnib): 0.823
IC50 (Tipifarnib): 15 µM

NCI-H1048 (small cell lung carcinoma, adherent)
AUC (NG-25): 0.792
IC50 (NG-25): 4.12 µM
AUC (GSK-1904529A): 0.989
IC50 (GSK-1904529A): > 1.02 µM
AUC (PFI-1): 0.977
IC50 (PFI-1): > 10 µM
AUC (Tipifarnib): 0.853
IC50 (Tipifarnib): 10.6 µM

HCC1569 (breast, adherent)
AUC (NG-25): 0.946
IC50 (NG-25): > 10.2 µM
AUC (GSK-1904529A): 0.951
IC50 (GSK-1904529A): > 1.02 µM
AUC (PFI-1): 0.852
IC50 (PFI-1): > 10 µM
AUC (Tipifarnib): 0.619
IC50 (Tipifarnib): 2.37 µM

PANC-03-27 (pancreas, adherent)
AUC (NG-25): 0.895
IC50 (NG-25): > 10.2 µM
AUC (GSK-1904529A): 0.988
IC50 (GSK-1904529A): > 1.02 µM
AUC (PFI-1): 0.921
IC50 (PFI-1): > 10 µM
AUC (Tipifarnib): 0.714
IC50 (Tipifarnib): 3.84 µM

NCI-H2087 (lung adenocarcinoma, semi-adherent)
AUC (NG-25): 0.921
IC50 (NG-25): > 10.2 µM
AUC (GSK-1904529A): 0.979
IC50 (GSK-1904529A): > 1.02 µM
AUC (PFI-1): 0.886
IC50 (PFI-1): > 10 µM
AUC (Tipifarnib): 0.62
IC50 (Tipifarnib): 2.2 µM

CAL-62 (thyroid, adherent)
AUC (NG-25): 0.876
IC50 (NG-25): 9.3 µM
AUC (GSK-1904529A): 0.979
IC50 (GSK-1904529A): > 1.02 µM
AUC (PFI-1): 0.686
IC50 (PFI-1): 2.02 µM
AUC (Tipifarnib): 0.573
IC50 (Tipifarnib): 1.57 µM

KOSC-2 (head and neck, adherent)
AUC (NG-25): 0.88
IC50 (NG-25): > 10.2 µM
AUC (GSK-1904529A): 0.969
IC50 (GSK-1904529A): > 1.02 µM
AUC (PFI-1): 0.856
IC50 (PFI-1): 8.66 µM
AUC (Tipifarnib): 0.84
IC50 (Tipifarnib): 11.7 µM

MDA-MB-361 (breast, adherent)
AUC (NG-25): 0.958
IC50 (NG-25): > 10.2 µM
AUC (GSK-1904529A): 0.981
IC50 (GSK-1904529A): > 1.02 µM
AUC (PFI-1): 0.863
IC50 (PFI-1): 8.53 µM
AUC (Tipifarnib): 0.609
IC50 (Tipifarnib): 1.99 µM

KYSE-70 (oesophagus, adherent)
AUC (NG-25): 0.973
IC50 (NG-25): > 10.2 µM
AUC (GSK-1904529A): 0.985
IC50 (GSK-1904529A): > 1.02 µM
AUC (PFI-1): 0.705
IC50 (PFI-1): 2.51 µM
AUC (Tipifarnib): 0.515
IC50 (Tipifarnib): 1.1 µM
